# About 40 (0.04%) of roughly 110,000 compounds were called active. The shares of active, inactive and inconclusive entries below differ from those in the screen. Calls follow the shape of the dose curve; as a rule, active = well fitted curve in the direction sought with a large enough effect in the signal ratio (not every such curve was filed as active); inconclusive = small, poorly fitted or top-dose-only effect, or a change in a side signal; inactive = flat fitted curve, though single readings scatter; the % refers to the signal ratio. Where the call is inconclusive, the potency comes from a doubtful curve fit.
# Test: IkB Signaling;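 as to IkBa stabilization activation: 0% = basal untreated cells and 100% = reference inhibitor full response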
# Conditions: ABC-DLBCL IkBa-CBG/CBR dual luciferase ratio (green luciferase fused to IkBa over red control in OCI-Ly3 lymphoma cells), 4 h, scaled: untreated 0%
# Procedure, shortened: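 Luminescence ratio of IκBα-fused green versus native red beetle luciferase in OCI-Ly3 cells, 4 h post-doxycycline with compound; red signal alone, scaled from basal (0%) to zero light (-100%), flagged nonspecific or cytotoxic effects.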
# [1] = IkBa stabilization activation: at 57.1 µM (top of the series), proteasome inhibitor 100% unless noted
# Potency is read from the fitted curve at half-maximal effect.
smiles,measurement,setting,value
COc1ccc(CCNC(=O)c2c(C)nn(-c3ccc(F)cc3)c2-n2cccc2)c(OC)c1OC,IkBa stabilization activation,[1],inconclusive: -0.452% [signal inhibitor]
COc1ccccc1N1CCN(C(=O)Cn2c(=O)n3nc(-c4cccc(C)c4)nc3c3ccccc32)CC1,IkBa stabilization activation,[1],inactive
COc1ccc(-n2ncc(C(=O)Nc3ccc4c(c3)OCCO4)c2C2CCN(C(=O)OC(C)(C)C)CC2)cc1,IkBa stabilization activation,[1],inconclusive: 1.71% [signal inhibitor]
COc1ccc(-c2cn3c(n2)CCC3)cc1,IkBa stabilization activation,[1],inactive
CNc1ncnc(Sc2nc(N)nc3nc[nH]c23)c1[N+](=O)[O-],IkBa stabilization activation,[1],"inactive: 5.29% [at 11.4 µM, scaled: untreated 0%, proteasome inhibitor 100%]"
CCOC(=O)c1c(NC(=O)C(C)Oc2ccc(Cl)c(C)c2)sc2c1CCCC2 (centres undefined),IkBa stabilization activation,[1],inconclusive: 4.33% [signal inhibitor]
CCc1ccc(NC(=O)CCCn2nc(C)c3c(C)n(-c4ccccc4)nc3c2=O)cc1,IkBa stabilization activation,[1],inconclusive: 1.94% [signal inhibitor]
Cc1cccc(N2CCN(C(=O)c3ccc(N4CCCC4=O)cc3)CC2)c1C,IkBa stabilization activation,[1],inconclusive: 0.949% [signal inhibitor]
O=c1[nH]c(CS(=O)(=O)c2ccccc2)nc2ccccc12,IkBa stabilization activation,[1],inconclusive: 17.6% [signal inhibitor]
CN1CCc2cccc3c2[C@@H]1Cc1ccc(O)c(O)c1-3,IkBa stabilization activation,[1],inactive
CCCSc1nnc2n(-c3ccc(OC)cc3)c(=O)c3c4c(sc3n12)COC(C(C)C)C4 (centres undefined),IkBa stabilization activation,[1],inconclusive: -0.59% [signal inhibitor]
CCOCCCNc1ncnc2c1[nH]c1ccccc12,IkBa stabilization activation,[1],inconclusive: 2.81% [signal inhibitor]
CCOc1ccc(CNC(=O)C2CCN(Cc3cc4ccccc4n3Cc3ccccc3C)CC2)cc1,IkBa stabilization activation,[1],inconclusive: 0.0543% [signal inhibitor]
C[C@H]1C[C@@H]2[C@@H]([C@@H](O)C[C@@]3(C)[C@H]2CC[C@]3(O)C(=O)CO)[C@@]2(C)C=CC(=O)C=C12,IkBa stabilization activation,[1],"inconclusive: 14.5% [signal activator] [at 25.6 µM, scaled: untreated 0%, proteasome inhibitor 100%]"
Cc1ccc(NC(=O)C(=O)NCCCN2CCOCC2)cc1C,IkBa stabilization activation,[1],inactive
Cc1c(CNC2CCCCCC2)c(C(=O)O)c(C)n1Cc1ccc(F)cc1,IkBa stabilization activation,[1],inconclusive: 1.44% [signal inhibitor]
CCc1ccc(CN(Cc2ccco2)C(=O)COc2ccc(Cl)cc2C)cc1,IkBa stabilization activation,[1],inconclusive: 0.0309% [signal inhibitor]
Cc1nc(-c2cnn(-c3ccccc3)c2)c2cc(C)oc2n1,IkBa stabilization activation,[1],inactive
Cc1occc1C(=O)Nc1ccc2c(c1)OCCO2,IkBa stabilization activation,[1],inactive
CCc1nc2c(cnn2-c2ccc(Cl)cc2)c(=O)n1-c1ccc(OC)c(Cl)c1,IkBa stabilization activation,[1],inconclusive: 7.22% [signal inhibitor]
Cc1ccc(CCNC(=O)c2ccc3c(c2)c(C)c(C)n3Cc2ccccc2)cc1,IkBa stabilization activation,[1],inactive
O=C(CC1SC(=O)N(c2ccccc2)C1=O)Nc1ccccc1 (centres undefined),Potency,[1],"inconclusive: 20 µM [signal inhibitor, partial curve]"
Cc1ccc2nc(N(Cc3cccnc3)C(=O)c3cccs3)sc2c1,Potency,[1],"inconclusive: 3.98 µM [signal inhibitor, full curve]"
CCOc1ccc(N2CC(c3nc4ccccc4n3Cc3cccc(C)c3)CC2=O)cc1 (centres undefined),IkBa stabilization activation,[1],inconclusive: 0.445% [signal inhibitor]
O=[N+]([O-])c1cc(-c2nc(-c3ccccc3)no2)ccc1NCCc1ccccc1,IkBa stabilization activation,[1],inconclusive: 0.367% [signal inhibitor]
COc1ccc(Cl)cc1NC(=O)CSc1nc(-c2ccccc2)c2ccccc2n1,IkBa stabilization activation,[1],inconclusive: -0.154% [signal inhibitor]
O=C(Nc1cccc(F)c1)[C@@H](c1ccccc1)N1Cc2ccccc2C1=O,IkBa stabilization activation,[1],inconclusive: 5.75% [signal inhibitor]
CCOC(=O)N1CCc2c(sc3c2c(=O)n(Cc2ccccc2)c(=O)n3CC(=O)Nc2ccccc2F)C1,IkBa stabilization activation,[1],inactive
CCOC(=O)c1c(C)[nH]c(CCC(=O)Nc2ccc(N(CC)CC)cc2C)c1C,IkBa stabilization activation,[1],inconclusive: -0.0433% [signal inhibitor]
CN1CC[C@H](CN2c3ccccc3Sc3ccccc32)C1,IkBa stabilization activation,[1],"inactive: 1.68% [at 11.4 µM, scaled: untreated 0%, proteasome inhibitor 100%]"
CCN1CC=C2C(C#N)=C(N)C(C#N)(C#N)C(CCc3ccccc3)C2C1 (centres undefined),IkBa stabilization activation,[1],inactive
CSCCC1NC2(C(=O)Nc3ccc(Cl)cc32)[C@@H]2C(=O)N(C3CCCC3)C(=O)[C@H]12 (some centres undefined),IkBa stabilization activation,[1],inconclusive: 8.73% [signal inhibitor]
O=C(c1cccs1)N(Cc1ccco1)Cc1cc2ccccc2[nH]c1=O,Potency,[1],"inconclusive: 3.16 µM [signal inhibitor, full curve]"
Brc1ccccc1-c1nnc(COc2ncnc3c2cnn3-c2ccccc2)o1,IkBa stabilization activation,[1],inconclusive: 4.34% [signal inhibitor]
COc1cccc(NC(=O)c2sc3nc(C)c(C(=O)Nc4ccc(C)cc4C)c(-c4ccc(Br)cc4)c3c2N)c1,IkBa stabilization activation,[1],inconclusive: 5.61% [signal inhibitor]
Cc1cc(Cl)ccc1NC(=O)C1CCN(S(=O)(=O)c2ccc3[nH]c(=O)ccc3c2)CC1,IkBa stabilization activation,[1],inactive
COc1ccc(N2CCN(C(=O)c3cc4c(=O)n(Cc5cccs5)ccc4nc3C)CC2)cc1,IkBa stabilization activation,[1],inconclusive: -0.262% [signal inhibitor]
Cc1ccc2nc(SC(Cc3cc(Cl)ccc3Cl)C(=O)O)[nH]c2c1 (centres undefined),IkBa stabilization activation,[1],inactive
Cc1ccc(CCNC(=O)CCSCc2ccccc2F)cc1,IkBa stabilization activation,[1],inconclusive: 0.342% [signal inhibitor]
CCOC(=O)c1cc(-c2ccccc2)nn1Cc1ccccc1,IkBa stabilization activation,[1],inactive
N#Cc1ccc(COc2ccc(CCO)cc2-n2nc3ccccc3n2)cc1,IkBa stabilization activation,[1],inconclusive: 1.2% [signal inhibitor]
O=C(CCOc1ccccc1)N(Cc1cccnc1)c1nc2c(Cl)cccc2s1,IkBa stabilization activation,[1],inconclusive: 5.99% [signal inhibitor]
Cc1cc(NC(=O)c2ccc(Cl)c(Cl)c2)ccc1-c1cc2ccccc2oc1=O,IkBa stabilization activation,[1],inconclusive: 6.77% [signal inhibitor]
CCCn1cnc2cc(NCc3cccc(OC)c3O)ccc21,IkBa stabilization activation,[1],inactive
CC1(C)C(=O)N(CC(=O)Nc2ccc(OC(F)(F)F)cc2)c2ccccc21,IkBa stabilization activation,[1],inactive
Oc1cccc(Nc2nc(-c3ccccc3)nc3ccccc23)c1,Potency,[1],inconclusive: 25.1 µM [signal inhibitor]
CCN(CCCNC(=O)c1cc2cc3cc(OC)ccc3nc2s1)c1ccccc1,IkBa stabilization activation,[1],inconclusive: 7.08% [signal inhibitor]
Cc1ccc(CNC(=O)CSc2nc3ccsc3c(=O)n2-c2ccc(C(=O)O)cc2)cc1,IkBa stabilization activation,[1],inactive
Cn1cc(C(=O)c2ccccc2)cc1-c1nc2ccccc2n1C,IkBa stabilization activation,[1],inconclusive: 4.75% [signal inhibitor]
O=C(CSC1=Nc2ccccc2C2=NC(CCC(=O)NC3CCCCC3)C(=O)N12)Nc1cccc(Cl)c1 (centres undefined),IkBa stabilization activation,[1],inconclusive: -6.43% [signal inhibitor]
Cc1sc2nc(C(C)Nc3ccccc3N3CCOCC3)[nH]c(=O)c2c1C (centres undefined),IkBa stabilization activation,[1],inconclusive: 0.854% [signal inhibitor]
CCOCCCNC(=O)N1CCN(S(=O)(=O)c2ccc3c(ccn3C)c2)CC1,IkBa stabilization activation,[1],inactive
Cc1ccccc1-c1ccc(C=Nc2c(C)n(C)n(-c3ccccc3)c2=O)o1,IkBa stabilization activation,[1],inactive
Cc1nn(-c2ccccc2)c(Cl)c1C(=O)Nc1nnc(C2CCCC2)s1,IkBa stabilization activation,[1],inconclusive: 2.97% [signal inhibitor]
Cn1c(=O)c2c(SCC(=O)NCC3CCCO3)nc(-c3ccccc3F)nc2n(C)c1=O (centres undefined),IkBa stabilization activation,[1],inconclusive: -2.38% [signal inhibitor]
COc1cccc(/C=C(\C#N)c2nc3ccc(C)cc3[nH]2)c1,IkBa stabilization activation,[1],inactive
Cc1ccc(C(C)C)c(OCC(O)CN2CC(C)OC(C)C2)c1 (centres undefined),IkBa stabilization activation,[1],inconclusive: 2.21% [signal inhibitor]
O=C(Cn1c(=O)n(-c2ccccc2)c(=O)c2ccc(C(=O)NCc3ccc4c(c3)OCO4)cc21)Nc1ccc(Br)cc1F,IkBa stabilization activation,[1],inactive
CCOc1ccc(NC(=O)CSc2oc(-c3cccs3)nc2S(=O)(=O)c2ccc(Cl)cc2)cc1,IkBa stabilization activation,[1],inconclusive: 4.84% [signal inhibitor]
NCCCCCCNS(=O)(=O)c1cccc2c(Cl)cccc12,IkBa stabilization activation,[1],inconclusive: 0.172% [signal inhibitor]
same,IkBa stabilization activation,"at 57.1 µM (top of the series), proteasome inhibitor 100%",inactive: -1.55%
COc1ccc(CNc2nc(-c3ccc(OC)c(OC)c3)cc(C(F)(F)F)n2)cc1,IkBa stabilization activation,[1],inconclusive: 6.47% [signal inhibitor]
COc1ncc2nc(-c3cccs3)c(=O)n(-c3ccccc3)c2n1,IkBa stabilization activation,[1],"inactive: -2.93% [at 11.4 µM, scaled: untreated 0%, proteasome inhibitor 100%]"
CCn1ccc2cc(S(=O)(=O)N3CCC(C(=O)NCc4ccc(OC(C)C)cc4)CC3)ccc21,IkBa stabilization activation,[1],inconclusive: 1.21% [signal inhibitor]
O=C(CCCc1nc2ccccc2s1)N1CCN(S(=O)(=O)c2cccs2)CC1,IkBa stabilization activation,[1],inconclusive: 3.68% [signal inhibitor]
COc1ccc(-c2nc3ccc(C(=O)NCc4ccccc4)cc3nc2-c2ccc(OC)cc2)cc1,IkBa stabilization activation,[1],inconclusive: -1.18% [signal inhibitor]
CCCSc1nnc2c(n1)OC(CC)N(C(C)=O)c1ccccc1-2 (centres undefined),IkBa stabilization activation,[1],inconclusive: 2.55% [signal inhibitor]
COc1ccc(OCC(O)CNc2ccc(Br)cc2)cc1 (centres undefined),IkBa stabilization activation,[1],inconclusive: 0.546% [signal inhibitor]
O=C(CN1C(=O)COc2ccc(S(=O)(=O)N3CCCCC3)cc21)NCCc1ccc(Cl)cc1,IkBa stabilization activation,[1],inconclusive: 2.32% [signal inhibitor]

# Reference: PubChem BioAssay AID445 (National Center for Advancing Translational Sciences (NCATS), 2006)
